# According to PubChem BioAssay AID463173 (ICCB-Longwood Screening Facility, Harvard Medical School, 2010):
# The campaign covered roughly 52,000 compounds. About 1,700 (3.3%) were called active. No stated cut-off is given here; in the data, active means survival mostly below about 52% (no sharp cut-off); inactive means mostly above about 56%. The list shows a part of the results.
# Test system: Wild type
# Assay: S. aureus survival, RN4220 and DeltatarO strains – OD600, teichoic acid synthesis inhibitors, primary screen (AID 463173)
# Conditions: S. aureus RN4220 wild type/DeltatarO growth, OD600, 18 h, active compounds read low, screened at 18.75 µg/mL (by protocol)
row,SMILES,survival
1,COc1cccc(C(=O)NC2CCSC2=O)c1 (configuration not stated),inactive: 107%
2,CCCc1nn2c(=O)cc(COC(=O)c3cccc(NC(=O)COc4ccccc4C)c3)nc2s1,inactive: 82%
3,O=C(c1cc(-c2ccccc2)on1)N1CCCc2ccccc21,inactive: 114%
4,Cc1cccc(OCCn2c(-c3ccc(Cl)cc3)nc3ccccc3c2=O)c1,inactive: 112%
5,CCN1CCN(CCCNC(=O)c2cc3c(=O)n(C)c4ccccc4c3s2)CC1,inactive: 86%
6,O=C(NCCc1ccccc1)c1cnc2sc(N3CCCC3)nn2c1=O,inactive: 80%
7,CC(=O)c1c(C)nc2nc(-c3ccccc3)nn2c1C,inactive: 65%
8,COC(=O)C1=C(CS(=O)(=O)c2cc(Cl)ccc2OC)NC(=O)NC1c1ccccc1 (configuration not stated),inactive: 85%
9,CCCCOc1ccc(C(=O)N2CCN(CCc3ccncc3)CC2)cc1,inactive: 110%
10,Cc1ccc(-c2nc3ccccc3[nH]2)cc1NC(=O)C(C)C,inactive: 110%
11,COc1ccccc1N1CCN(C(=O)c2nn(-c3ccc(C)cc3)c(=O)n(C)c2=O)CC1,inactive: 83%
12,COCCCNC(=O)c1oc2c(c1C)-c1nn(Cc3cccc(Cl)c3)cc1CC2,inactive: 85%
13,CC1Cc2cc(S(=O)(=O)N3CCN(c4ccccc4F)CC3)ccc2N1C(=O)C1CCC1 (configuration not stated),inactive: 66%
14,Cc1cc(F)ccc1S(=O)(=O)NCC(c1ccco1)S(=O)(=O)c1cccs1 (configuration not stated),inactive: 128%
15,CC(C)(C)OC(=O)N1CC=C2C(C1)C(c1cccc(F)c1)C(C#N)=C(N)C2(C#N)C#N (configuration not stated),inactive: 134%
16,CCOC(=O)c1ccc(Nc2c(-c3ccc(O)c(OC)c3)nc3nc[nH]n23)cc1,inactive: 74%
17,COc1cc(NS(=O)(=O)c2ccc3c(c2)CCN3S(C)(=O)=O)cc(OC)c1,inactive: 73%
18,Cc1cc2nnc(SCC(=O)Nc3ccc(F)c(Cl)c3)n2c2ccccc12,inactive: 68%
19,CC1CCCC(C)N1C(=O)CN1CCC(O)(c2ccccc2)CC1 (configuration not stated),inactive: 112%

row,SMILES,survival
1,CCc1nn2c(=O)cc(COC(=O)c3cccc(NC(=O)c4ccccc4Cl)c3)nc2s1,inactive: 71%
2,CCCn1ccc2c(OCC(=O)NCc3ccc(C)cc3)cccc2c1=O,inactive: 101%
3,CCc1ccc2c(c1)c(=O)c(S(=O)(=O)c1ccc(F)cc1)cn2CC(=O)Nc1ccc(C)cc1C,inactive: 131%
4,Cc1ccc(CNC(=O)C2CCCN(S(=O)(=O)c3cccc4nsnc34)C2)cc1 (configuration not stated),inactive: 130%
5,O=C(CSc1c2c(nc3ccc(Cl)cc13)CCCC2)N1CCN(c2cccc(Cl)c2)CC1,inactive: 55%
6,COc1ccc(CNC(=O)c2cnc3sc(N4CCCC4)nn3c2=O)cc1OC,inactive: 68%
7,Cc1ccc2c(c1)C(c1ccc(F)cc1)N(C(=O)COc1ccc(Cl)cc1Cl)CC(=O)N2 (configuration not stated),inactive: 64%
8,CCN(CC)CCSc1nc2ccc(OC)cc2[nH]1,inactive: 102%
9,CC1=Nc2ccccc2N=C(C)C1,inactive: 115%
10,Cc1cccc(NC(=O)c2ccc(N(Cc3ccccc3)S(C)(=O)=O)cc2)c1,inactive: 66%
11,CCN(CCCNC(=O)c1cc2c(=O)n(C)c3ccccc3c2s1)Cc1ccccc1,inactive: 77%
12,Cc1cc2ncn(CCCCOc3ccccc3)c2cc1C,active: 20%
13,CC1CCC(NC(=O)c2ccc3c(c2)N(Cc2ccccc2)C(=O)c2ccccc2S3=O)CC1 (configuration not stated),inactive: 146%
14,CCOC(=O)c1c(C)[nH]c(CCC(=O)Nc2cc(C)ccc2OC)c1C,inactive: 80%
15,COc1cc(-c2nnn(CC(=O)Nc3ccc(OC(F)(F)F)cc3)n2)cc(OC)c1OC,inactive: 92%
16,CCOC(=O)c1cccc(NC(=O)CN2C(=O)c3ccccc3Sc3ncccc32)c1,inactive: 117%
17,COc1cc(NC(=O)CC2C(=O)N(c3ccc(Cl)cc3)C(=O)N2Cc2cccs2)cc(OC)c1 (configuration not stated),inactive: 80%
18,Cc1ccc(C(=O)NCc2ccc(N(C)C)cc2)cc1NC(=O)c1nsc2ccccc12,inactive: 128%
19,CN1C(C(=O)Nc2ccc(F)cc2F)=CC(c2ccco2)=NS1(=O)=O,inactive: 87%

row,SMILES,survival
1,O=C(CSCc1ccccc1Cl)N1CCN(c2ccc(F)cc2)CC1,inactive: 64%
2,Cc1nnc(NCc2ccccc2)c2c1nnn2Cc1ccccc1Cl,inactive: 90%
3,O=C(Cn1ncc2c1-c1ccccc1OC2)N1CCN(c2ccccc2F)CC1,inactive: 77%
4,CCOC(=O)/C(C#N)=C/c1cc(Br)cs1,inactive: 98%
5,CN1c2ccccc2Sc2cc(C=C(C#N)C#N)ccc21,inactive: 108%
6,COc1ccccc1CNC(=O)C1CCCN(S(=O)(=O)c2ccc3c(c2)CCCN3C(C)=O)C1 (configuration not stated),inactive: 64%
7,Cc1cc2oc(C(=O)Nc3c(C(=O)Nc4ccccc4)oc4ccccc34)cc(=O)c2cc1C,inactive: 114%
8,Cc1cccc(C)c1NC(=O)c1oc2ccc3c(c2c1C)C(=O)CC(C)(C)O3,inactive: 71%
9,Cc1cccn2c(=O)c(C(=O)NCCCN3CCCCC3C)c(O)nc12 (configuration not stated),inactive: 87%
10,COc1ccc(OCC(O)Cn2c(C(C)C)nc3ccccc32)cc1 (configuration not stated),inactive: 107%
11,CCc1ccc(-c2nn(CC(=O)Nc3ccccc3)c3c2cnc2ccc(F)cc23)cc1,inactive: 78%
12,COc1ccc(N2CCN(C(=O)c3cn(CC(C)C)c(=O)c4c3c3ccccc3n4C)CC2)cc1,inactive: 73%
13,O=C(Cn1c(=O)c2cccn2c2ccccc21)Nc1cc(F)ccc1F,inactive: 71%
14,CCOC(=O)c1cc(-c2ccccc2)n(-c2cccc(C(=O)Nc3ccc(OC)cc3)c2)c1C,inactive: 77%
15,CCOc1ccc(N(C(=O)Cn2nnc3ccccc32)C(C(=O)NCc2ccccc2)c2ccc(OC)cc2)cc1 (configuration not stated),inactive: 83%
16,CC(C)(C)C1CCc2c(sc(NC(=O)Cn3nnc(-c4ccccc4F)n3)c2C#N)C1 (configuration not stated),inactive: 85%
17,CC(=O)N1CCCc2cc(S(=O)(=O)N3CCC(C(=O)NCc4ccc(C)cc4)CC3)ccc21,inactive: 60%
18,Cc1onc(-c2ccccc2Cl)c1C(=O)Oc1cc(F)cc(F)c1,inactive: 82%
19,COC(=O)c1ccccc1NC(=O)Cn1c(=O)n(-c2cccc(OC)c2)c(=O)c2c(C)c(C(=O)N(C)C)sc21,inactive: 121%
